Source: the RNAGym collection of RNA variant scans (doi:10.1073/pnas.2313332121)
Variants at the background level are over-represented here.

B1: TPR 5TU (parent)
chain: GGAUCUUCUCGAUCUAACAAAAAAGACAAAUCUGCCACAAAGCUUGAGAGCAUCUUCGGAUGCAGAGGCGGCAGCCUUCGGUGGCGCGAUAGCGCCAACGUUCUCAACUAUGACACGCAAAACGCGUGCUCCGUUGAAUGGAGUUUAUCAUG

Variants of: B1
Assay: polymerase ribozyme fitness, log enrichment relative to wild type (log ratio); higher = more active; in vitro selection for triplet polymerase activity
Outline: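 One round of in vitro selection, in triplicate, was applied to PCR-built, transcribed mutant libraries of each subunit of a heterodimeric triplet polymerase ribozyme. The steps were annealing with a biotinylated primer, partner subunit and triplets, incubation frozen at −7 °C, gel excision of extended constructs, streptavidin-bead capture and RT-PCR. Fitness is the logarithm, base 2, of genotype enrichment over wild-type enrichment from inverse-variance-weighted replicate averages of Illumina-sequenced inputs and outputs, keeping genotypes with ≥10 input reads and ≥1 read per output.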

Variant	polymerase ribozyme fitness (log ratio)
A20C C35G U78A	≤ -4.2
A20C C35U A97G	-0.284
A20C C35U U61G U77C C95A C99U A121G	≤ -4.2
A20C C36G U82G C116A A119C A138G	≤ -4.2
A20C C36U A40C U56A A89U U111G U130A A142G	≤ -4.2
A20C C38U C63G G65C G92C U151A	≤ -4.2
A20C C43U U44A U55G C79U G141A	≤ -4.2
A20C C51A G67U C95U A120G U139A	≤ -4.2
A20C C51G U56G A73G C87G G112C A115C A119U A120G G141C A150U	≤ -4.2
A20C C54A U61G G70A C85U A98G A150C	≤ -4.2
A20C C57A G84U A119U U148G U151A	≤ -4.2
A20C C63U A64C	≤ -4.2
A20C C75U U82C C87U U101G C105U U146G	≤ -4.2
A20C C76A A119U	-1
A20C C76U C85U C95U C96U	-3.03
A20C C79A G94C	≤ -4.2
A20C C85A A107U	≤ -4.2
A20C C85U A89G A106G	-2.07
A20C C85U A115U	-1.06
A20C C87A C108U A120C	≤ -4.2
A20C G34C U55A A66G C96U A122C C132U	≤ -4.2

Variant	polymerase ribozyme fitness (log ratio)
A20C G42A C54U C75G G86U A113G A115G	≤ -4.2
A20C G46A C69G G94A	-2.22
A20C G58A G70A U77G G141A A142C	≤ -4.2
A20C G59A G81C G86C	-3.14
A20C G80C A91C G100U U144C	≤ -4.2
A20C G136A	-0.55
A20C U31A A49C A60C G83A G92C	≤ -4.2
A20C U33G A37C A52C C79U C87G A89C A106G U109G C118U	≤ -4.2
A20C U44A C54A G94C A107C G141A G143U	≤ -4.2
A20C U53A U56A G70A C72G C87A	≤ -4.2
A20C U53A U56A G70A C72G C87A G152A	≤ -4.2
A20C U55G C57U A120C	-0.73
A20C U56A C93A C116A	-1.28
A20C U56G G92U	-0.962
A20C U61A C63U C85U	-1.55
A20C U77A C85G G92C A120G A121C A150G	≤ -4.2
A20C U82A A150G	-0.662
A20C U104G A107C U145G	≤ -4.2
A20G A21C U31C C103A U144G	-1.73
A20G A22C A24U G34C C35G A91C C105U	≤ -4.2
A20G A22G A41G G50A G58A C75A	≤ -4.2

Variant	polymerase ribozyme fitness (log ratio)
A20G A22U A40G G48U A73U C85U C116G	≤ -4.2
A20G A23C G68A A91G	≤ -4.2
A20G A23U G81C C95A A147U	≤ -4.2
A20G A24G A40C A49C C85A	≤ -4.2
A20G A24U C85A C116A	-0.238
A20G A24U U44A G50A C96U C132U A150C	≤ -4.2
A20G A29U C51G C87G	≤ -4.2
A20G A40C C72U G92A	-4.04
A20G A52U C57A G62U C95A G133C A150U	-1.8
A20G A64C G67A C93U G94C U145G	≤ -4.2
A20G A73G C85A	-2.05
A20G A73U G83A	-2.36
A20G A91U	≤ -4.2
A20G A142C	-1.06
A20G C27U C38U U53A U77G A106C C116U U146C G152C	≤ -4.2
A20G C32U C38U A73G G86A A137U	≤ -4.2
A20G C36A U55A A120U A121U C123U C125G G143A	≤ -4.2
A20G C36G A39U C54A	≤ -4.2
A20G C36G G48C A66G C85A G88A	≤ -4.2
A20G C36G G83A A91G A142G	≤ -4.2
A20G C38U A47C A60G C93U A106G G128U	≤ -4.2

Variant	polymerase ribozyme fitness (log ratio)
A20G C51U	-0.842
A20G C54G C96U	-2
A20G C54U G83U A91U G92A A98C	≤ -4.2
A20G C57U G62C G136U	-3.44
A20G C76G G84A A122G	≤ -4.2
A20G C85U A91G C95A G126C	≤ -4.2
A20G C85U G94U C95G C125U	-3.59
A20G C87A U101C A142C	≤ -4.2
A20G C93A C103G	≤ -4.2
A20G G25A U53A A66G C87A C116A	≤ -4.2
A20G G42C C85G A91C C125A	≤ -4.2
A20G G46U A73U G84A C125A	≤ -4.2
A20G G58A G81C A142C	-1.55
A20G G59A U77A C95U G117U C118G A122U	≤ -4.2
A20G G80A U82G C95U	-1.15
A20G G80C U82A G100A U135C	≤ -4.2
A20G G81A C96U C114G U127G A142C	≤ -4.2
A20G G83C U90C G136U	≤ -4.2
A20G G84A U151G	≤ -4.2
A20G U33C C36A C54U C85A G133A G140C	≤ -4.2
